Hit rate of the full screen: of about 360,000 compounds, about 660 (0.18%) were called active. The inconclusive results got no clear call from the source; some entries with a clear call stand among them for comparison. Calls come from the whole dose curve; as a rule, active = well fitted inhibition curve with a large enough effect; inconclusive = small, poorly fitted or top-dose-only effect; inactive = no such curve, though single readings can be large or run the other way. Potencies of inconclusive entries are left out as doubtful fits.
Target: Rap guanine nucleotide exchange factor 4 (Homo sapiens) (UniProt Q8WZA2)
Test: qHTS for Antagonist of cAMP-regulated guanine nucleotide exchange factor 2 (EPAC2): primary screen; note: nearly all actives have a fitted effect of over 45% in size
Settings: EPAC2 GEF exchange of Rap1B-BODIPY-GDP, fluorescence; activity, negative = inhibition: at 114 µM (top of the series) unless noted
% is set by controls: 0 for no effect and ±100 for the full control effect; potency is the fitted concentration of half-maximal effect; tags give direction and shape of the fitted curve.

Chain of UniProt Q8WZA2 (Q8WZA2 whole entry, looked up): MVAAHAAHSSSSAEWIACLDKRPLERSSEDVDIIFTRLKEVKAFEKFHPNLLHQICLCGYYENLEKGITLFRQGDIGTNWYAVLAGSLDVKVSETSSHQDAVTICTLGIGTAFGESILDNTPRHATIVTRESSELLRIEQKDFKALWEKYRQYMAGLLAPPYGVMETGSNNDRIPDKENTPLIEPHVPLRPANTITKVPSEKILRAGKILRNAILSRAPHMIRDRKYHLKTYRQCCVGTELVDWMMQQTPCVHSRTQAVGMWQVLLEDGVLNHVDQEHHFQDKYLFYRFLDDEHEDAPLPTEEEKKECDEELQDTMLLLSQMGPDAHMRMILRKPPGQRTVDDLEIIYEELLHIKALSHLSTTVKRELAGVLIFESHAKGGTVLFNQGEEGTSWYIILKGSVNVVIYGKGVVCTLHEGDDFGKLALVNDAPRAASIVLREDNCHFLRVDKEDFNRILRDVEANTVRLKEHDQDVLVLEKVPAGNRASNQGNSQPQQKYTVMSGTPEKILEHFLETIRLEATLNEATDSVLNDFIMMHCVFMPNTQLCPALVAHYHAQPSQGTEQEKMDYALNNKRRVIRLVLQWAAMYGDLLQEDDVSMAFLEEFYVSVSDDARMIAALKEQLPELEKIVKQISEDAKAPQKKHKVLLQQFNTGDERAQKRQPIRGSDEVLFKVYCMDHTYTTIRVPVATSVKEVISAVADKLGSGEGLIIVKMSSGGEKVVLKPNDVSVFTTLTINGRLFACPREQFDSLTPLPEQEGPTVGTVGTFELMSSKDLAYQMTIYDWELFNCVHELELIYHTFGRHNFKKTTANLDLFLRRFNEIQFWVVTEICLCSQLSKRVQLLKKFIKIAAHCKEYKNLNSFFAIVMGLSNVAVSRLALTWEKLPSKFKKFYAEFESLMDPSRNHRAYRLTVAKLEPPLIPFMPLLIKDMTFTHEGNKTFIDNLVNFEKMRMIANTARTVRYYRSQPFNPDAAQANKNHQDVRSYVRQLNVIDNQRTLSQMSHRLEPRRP

Structure (SMILES)	Potency	activity, negative = inhibition
COC(=O)c1cc(COC(=O)CNC(=O)c2ccc(Br)cc2)oc1C	inconclusive [inhibitor, single point]	–
CCC(CO)Nc1nc2ccc(Cl)cc2c2ccccc12 (stereo unspecified)	inconclusive [inhibitor, partial curve]	–
N=C(N)c1ccc(N=Nc2c(O)ccc3c2[nH]c2ccccc23)cc1	active: 50.1 µM	–
Cc1cc(C)n(-c2nc3c(c(=O)[nH]c(=O)n3C)n2CC(O)c2ccccc2)n1 (stereo unspecified)	–	inactive: 7.09%
CCN(CC)S(=O)(=O)c1ccc(N2CCOCC2)c(NC(=O)COc2ccc(OC)cc2)c1	inconclusive [inhibitor, single point]	–
Cc1cnc(N2C(=O)c3ccc([N+](=O)[O-])cc3C2=O)s1	inconclusive [inhibitor, partial curve]	–
COc1ccc(/C=N/NC(=O)CNc2c(Br)cc(C)cc2Br)c(C(=O)O)c1OC	inconclusive [inhibitor, single point]	–
OCCN1CCN(CC/C=C2/c3ccccc3Sc3ccc(C(F)(F)F)cc32)CC1	inconclusive [inhibitor, full curve]	–
COc1ccc(N(C)C(=O)c2sc(Cl)nc2C)cc1	inconclusive [inhibitor, partial curve]	–
Cc1nc(C)n(C(Oc2ccc(Cl)cc2Cl)C(=O)C(C)(C)C)n1 (stereo unspecified)	inconclusive [inhibitor, partial curve]	–
Nc1ccccc1Sc1c[nH]c2ccccc12	inconclusive [inhibitor, partial curve]	–
Cc1ccc(-c2ocnc2C(=O)Nc2ccccc2NC(=O)c2ccccn2)cc1	inconclusive [inhibitor, partial curve]	–
Cc1cccc(Cn2c(C)nc3c(N)c(C)c(C)cc32)c1	inconclusive [inhibitor, full curve]	–
N#Cc1ccc(S(=O)(=O)N2CCCCC2c2cc(C(=O)NCc3ccccc3)no2)cc1 (stereo unspecified)	inconclusive [inhibitor, partial curve]	–
Cc1cccc(C)c1N=Nc1c(C)cc(O)cc1C	inconclusive [inhibitor, single point]	–
Oc1ccc(Cl)c(CN2CCN(c3ncc(Cc4ccccc4)cn3)CC2)c1	–	inactive: 2.66%
COc1ccc2[nH]cc(S(=O)(=O)c3ccc(C)cc3)c2c1	inconclusive [inhibitor, partial curve]	–
CCOc1ccc(NC(=O)c2ccccc2C(=O)c2ccccc2)cc1OCC	inconclusive [inhibitor, full curve]	–
N#C/C(=C\c1ccc(OCc2ccccc2)cc1)C(=O)Nc1nc2c(s1)CCN(Cc1ccccc1)C2	–	inactive: 36.9%
Cc1cc(C)c(S(=O)(=O)N(C)c2ccccc2)c(C)c1	inconclusive [inhibitor, partial curve]	–
COc1ccc(C(=O)N(CCc2ccccc2)Cc2ccccc2)c(OC)n1	inconclusive [inhibitor, partial curve]	–
Cc1ccnc(NS(=O)(=O)c2ccc(NC(=O)Cc3c(F)cccc3Cl)cc2)n1	inconclusive [inhibitor, full curve]	–

Structure (SMILES)	Potency	activity, negative = inhibition
O=C(NC1CC1)c1cc2cc3ccccc3nc2s1	–	inactive: 0.859%
CCCCCCCCN1C(=O)[C@H](CC(=O)N2CCN(C(=O)c3ccco3)CC2)C[C@@]2(C(=O)OC)CCCCC=C12	inconclusive [inhibitor, partial curve]	–
Nc1nc(CSc2nnnn2-c2ccc(Cl)cc2)nc(N2CCOCC2)n1	inconclusive [inhibitor, single point]	–
CCc1ccc(NC(=O)C2CCN(S(=O)(=O)c3cccs3)CC2)cc1	inconclusive [inhibitor, full curve, poor fit]	–
O=C(NCCc1c[nH]c2ccccc12)c1ccc2c(c1)OCO2	–	inactive: -7.02%
CCc1nc2c(OCC=C(C)C)cccn2c1N(C)C(=O)c1ccc(OC)cc1	inconclusive [inhibitor, single point]	–
C=CCn1c(NC(=O)c2ccccc2Cl)c(C#N)c2nc3ccccc3nc21	inconclusive [inhibitor, partial curve]	–
CCOC(=O)c1cc(C)sc1NC(=O)CSc1nccn1C	inconclusive [inhibitor, partial curve]	–
COc1ccccc1N1CCN(S(=O)(=O)c2ccc3c(c2)CC(C)N3C(C)=O)CC1 (stereo unspecified)	inconclusive [inhibitor, partial curve]	–
CC1(C(=O)NS(=O)(=O)c2ccc(Cl)cc2)CCN1C(=O)C1(c2ccccc2)CCCC1 (stereo unspecified)	inconclusive [inhibitor, partial curve, poor fit]	–
O=C(NCc1cc(C(F)(F)F)cc(C(F)(F)F)c1)C1CC(c2c(Cl)cccc2Cl)=NO1 (stereo unspecified)	inconclusive [inhibitor, full curve]	–
CN(C(=O)COC(=O)c1cccc(S(=O)(=O)N(C)c2ccccc2)c1)C1CCCCC1	–	inactive: -1.2%
NS(=O)(=O)c1ccc2c(c1)oc(=O)c1cc(S(N)(=O)=O)ccc12	–	inactive: -15%
CCCCN(CCCC)Cc1cc(=O)oc2cc(OC)ccc12	inconclusive [inhibitor, full curve]	–
Cc1ccc(O)c(Sc2cc(C)ccc2O)c1	inconclusive [inhibitor, single point]	–
CCC(=O)[C@@H](C)[C@@H](OC(C)=O)[C@H](C)C[C@@H](C)[C@H]1OC(=O)C[C@@]2(O)CC=C(C)C(O2)C(C)=CCCC[C@H](O[C@H]2C[C@@H](OC(N)=O)[C@H](OC(C)=O)[C@@H](C)O2)C=C[C@H](C)C[C@H]1C	–	inactive: 2.82%
COc1ccccc1NS(=O)(=O)c1cccc(NC(=O)c2cncc(Br)c2)c1	inconclusive [inhibitor, single point]	–
COc1ccc(NS(=O)(=O)c2ccc(C(=O)N(C)Cc3cccs3)cc2)cc1	–	inactive: -15.3%
CN1CCN(C(=O)c2cc3c(c(-c4cccc(Br)c4)n2)[C@@H](CCO)N(S(=O)C(C)(C)C)C3)CC1 (stereo partly specified)	inconclusive [inhibitor, single point]	–
CCOC(=O)C1=CN(CC2CCCCC2)CCC1=O	–	inactive: 13.6%
O=C(NCCOc1ccccc1F)c1ccccc1SCc1ccc(F)cc1	inconclusive [inhibitor, partial curve]	–
COc1ccc2ccccc2c1C(=O)/C=C\c1ccoc1	inconclusive [inhibitor, partial curve]	–

Structure (SMILES)	Potency	activity, negative = inhibition
O=S(=O)(c1ccccc1)N1CCN(c2nc3ccccc3s2)CC1	–	inactive: 10.1%
Cc1cc2oc(=O)cc(-c3ccccc3)c2c(C)c1-c1ccc(C#N)cc1	inconclusive [inhibitor, partial curve]	–
COC(=O)c1c(NC(=S)Nc2cc(OC)c(Cl)cc2OC)sc2c1CCCCC2	inconclusive [inhibitor, single point]	–
OC1CCCN(c2c3c(nc4cc(-c5cccc(F)c5)nn24)CCCC3)C1 (stereo unspecified)	inconclusive [inhibitor, single point]	–
CC1(Cc2ccc(OC(F)(F)F)cc2)C(=O)Nc2ccc(OC(F)(F)F)cc21 (stereo unspecified)	inconclusive [inhibitor, full curve]	–
COC(=O)C1=CN(Cc2ccccc2)C=C(C(=O)OC)C1c1cc(F)ccc1F	inconclusive [inhibitor, full curve]	–
COC(=O)c1cc(C(=O)c2cc(Cl)ccc2O)coc1=N	–	inactive: 1.95%
CC1=NN(c2cccc(C(=O)O)c2)C(=O)/C1=C\C=C/c1ccccc1	active: 15.8 µM	–
CCc1ccc(C(=O)NC(=S)Nc2ccc(N3CCOCC3)cc2)cc1	–	inactive: -2.67%
O=c1c2c(nc3cc(-c4ccc(Br)cc4)[nH]n13)CCCC2	inconclusive [inhibitor, single point]	–
OC[C@@H]1[C@@H](c2ccc(Cl)cc2)C(c2ccccc2)=NN1c1ccccc1	inconclusive [inhibitor, single point]	–
O=[N+]([O-])c1ccc(S(=O)(=O)NCC2CC3CCC2C3)cc1 (stereo unspecified)	–	inconclusive: -16.8% [inhibitor]
O=C(CNC(=S)N(Cc1ccccc1)Cc1ccccc1F)NCCc1ccc(Cl)cc1	inconclusive [inhibitor, full curve]	–
COc1cccc(N=CNc2cccc(OC)c2)c1	–	inactive: -1.65%
O=C1C=C(c2ccc(O)cc2)C[C@@H](c2ccc(Cl)cc2)C1	inconclusive [inhibitor, full curve]	–
Cc1cc(C)cc(N2CC(C)(C)C2=O)c1	inconclusive [inhibitor, single point]	–
CC(=O)c1c(C)nc2ccc(Br)cc2c1-c1ccccc1	inconclusive [inhibitor, partial curve]	–
NC(=O)C1CCN(CC(=O)Nc2cccnc2Cl)CC1	–	inactive: 1.8%
CN(C)c1ccc(C(=O)NCc2ccc3c(c2)OCO3)cc1	inconclusive [inhibitor, partial curve, poor fit]	–
COc1ccc2nc(C(F)(F)Cl)c(C#N)c(N)c2c1	–	inconclusive: -19.1% [inhibitor]
CC(=O)C1=NN(c2ccc(Cl)cc2)C(c2ccc3c(c2)OCO3)N(C(C)=O)N1C (stereo unspecified)	inconclusive [inhibitor, full curve]	–
CCN(CC)c1nc(-c2ccc(Cl)cc2)cc(C(F)(F)F)c1C#N	inconclusive [inhibitor, full curve, poor fit]	–
